# Measured values published in PubChem BioAssay (NCI).
#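 1) Cells in 96-well plates. 2) Compound, 48 h, 5 concentrations. 3) Linear interpolation between surrounding doses. 4) Unreached endpoint = highest concentration. GI50: concentration for 50% inhibition of growth.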 Certain results were filed several times, with different values. They are shown here; other results are not. An entry can have further records. For some of these results: A record mostly stands for its own series of concentrations, which the source does not state; some values may only mark the edge of a range. For some of these results: The values listed for one entry repeat one measurement (runs, samples, wells, individuals or studies). Brackets tell where a record comes from. Letters hold for one entry only.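 At the TGI there is no net growth.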
# Tests used:
# Experiment in all cases: growth of human tumour cells (NCI), 48 h
# [1] = test system: A498 renal
# [2] = test system: EKVX NSCLC
# [3] = test system: HCC-2998 colon
# [4] = test system: HCT-116 colon
# [5] = test system: LOX IMVI melanoma
# [6] = test system: MALME-3M melanoma
# [7] = test system: RPMI-8226 leukemia
# [8] = test system: SF-539 CNS
# [9] = test system: SK-MEL-2 melanoma
# [10] = test system: SK-MEL-5 melanoma
# [11] = test system: UACC-257 melanoma
# [12] = test system: UO-31 renal
# [13] = test system: MCF7 breast
# [14] = test system: OVCAR-4 ovarian
# [15] = test system: A549 NSCLC
# [16] = test system: CAKI-1 renal
# [17] = test system: NCI-H226 lung
# [18] = test system: M14 melanoma
# [19] = test system: NCI-H23 lung
# [20] = test system: OVCAR-3 ovarian
# [21] = test system: SNB-75 CNS
structure (smiles),measurement,setting,value
CC(C)CCCCCCCCCCCCC(=O)NCC(=O)NC1C(C)OC(Nc2ncnc3nc[nH]c23)C(O)C1O (configuration not stated),GI50,[1],1.15 nM and 42.4 nM
same,TGI,[2],971 nM and 20.1 nM
same,TGI,[3],6.19 nM and 247 nM
same,TGI,[4],"8.94 nM, 132 nM, < 17.5 nM"
same,TGI,[5],6.85 nM and 137 nM
same,TGI,[6],4.96 nM and 72.4 nM
same,TGI,[7],7.13 nM and 15.5 µM
same,TGI,[8],5.33 nM and 215 nM
same,TGI,[9],86.8 nM and 1.08 µM
same,TGI,[10],9.11 nM and 110 nM
same,GI50,[11],3 nM and 31.6 nM
same,TGI,[12],4.68 nM and 606 nM
CN[C@@H](Cc1cccc2ccccc12)C(=O)N[C@@H](CC(C)C)B(O)O,TGI,[13],222 nM and > 100 µM
same,TGI,[14],126 nM and > 100 µM
O=C(Nc1cn[nH]c1-c1nc2ccc(CN3CCOCC3)cc2[nH]1)NC1CC1,GI50,[15],"310 nM [sample A, mean of 2 tests] and > 10 µM [sample B, 1 test]"
same,GI50,[16],"891 nM [sample A, mean of 2 tests] and > 10 µM [sample B, 1 test]"
same,TGI,[17],"733 nM [sample A, mean of 2 tests] and 8.74 µM [sample B, 1 test]"
COc1ccc(-c2oc3c(OC)c(OC)c(OC)c(O)c3c(=O)c2OC)cc1O,TGI,[18],396 nM and 31 µM
same,TGI,[19],611 nM and 30.1 µM
same,TGI,[20],296 nM and < 10 nM
CC[C@@]1(O)C[C@H](OC2CC(N(C)C)C(OC3CC(O)C(OC4CCC(=O)C(C)O4)C(C)O3)C(C)O2)c2c(cc3c(c2O)C(=O)c2c(O)cccc2C3=O)C1C(=O)OC (some centres not stated),TGI,[17],132 nM and 1.76 µM
same,TGI,[21],145 nM [1 test] and 2.03 µM [mean of 2 tests]
